Results as given in PubChem BioAssay AID1347417 (National Center for Advancing Translational Sciences (NCATS), 2020).
About 5,300 (4.4%) of roughly 120,000 compounds were called active. Inconclusive results, whose numbers are uncertain, are shown with a selection of clear calls. Calls follow the shape of the dose curve; as a rule, active = well fitted inhibition curve with a large enough effect; inconclusive = small, poorly fitted or top-dose-only effect; inactive = no such curve, though single readings can be large or run the other way. Where the call is inconclusive, the potency comes from a doubtful curve fit.

experiment: qHTS Primary assay for Inhibitors of Plasmodium falciparum Dd2 growth in vitro; also: nearly all actives have a fitted effect of over 65% in size;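 as to activity, negative = inhibition: plate controls were DMSO vehicle for no effect and reference drug for full effect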; settings: P. falciparum Dd2 growth, SYBR Green, 72 h; activity, negative = inhibition: at 28.9 µM (top of the series) unless noted; series mostly up to 28.9 µM
Method in brief: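 Readout: SYBR Green fluorescence, 485 nm excitation, 535 nm emission, after ~16 h lysis at 37C. Before that, Dd2-infected red cells (2.5% hematocrit) grew 72 h with compound, 29 uM top final concentration.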
Potency is read from the fitted curve at half-maximal effect; tags tell the direction and shape of the fitted curve.

Row | Structure (SMILES) | Potency | activity, negative = inhibition
1 | O=C(NC1CC1)[C@@H]1C[C@H](Oc2cccnc2)CN1C(=O)CCc1c[nH]c2ccccc12 | inconclusive: 10 µM [inhibitor, single point] | –
2 | Cc1ccc(C)c(N2CCN(C(=O)CCn3c(=O)[nH]c4ccccc4c3=O)CC2)c1 | inconclusive: 7.94 µM [inhibitor, partial curve, poor fit] | –
3 | CC[C@H]1CN(S(=O)(=O)c2ccccc2)CC[C@H]1CC(=O)N1CCOCC1 | inactive | –
4 | COc1ccc(CNCC2(CO)C[C@@H](O)[C@@H](O)C2)cc1 (stereo not given in full) | inactive | –
5 | CC(C)(C)OC(=O)N1CC(Nc2cccc(Oc3ccccc3)c2)C1 | inconclusive: 11.2 µM [inhibitor, single point] | –
6 | COC(=O)CC1Oc2ccc(C)cc2-n2cc(-c3ccc(F)cc3)nc21 (stereo not given) | inconclusive: 1.26 µM [inhibitor, single point] | –
7 | CS(=O)(=O)N1C[C@H]2CCN(C(=O)Cc3c[nH]c4ccccc34)C[C@H]21 | inactive | –
8 | O=C(CCC1N=C2c3ccccc3N=C(SCc3ccccc3Cl)N2C1=O)N1CCN(c2ccccc2)CC1 (stereo not given) | inconclusive: 11.2 µM [inhibitor, partial curve, poor fit] | –
9 | COc1ccc(NC(=O)O[C@@H]2CC[C@]3(C)C(CC[C@@H](O)[C@H]3CC(=O)NCc3ccccc3OC)[C@]2(C)CO)cc1 (stereo not given in full) | inconclusive: 1.26 µM [inhibitor, full curve, poor fit] | –
10 | CC(=O)N1CC2(Cc3ccccc31)CN(C(=O)c1ccccc1)C2 | inactive | –
11 | Cc1ccc(CC(=O)Nc2c(C(=O)N3CCN(c4ccccc4)CC3)oc3ccccc23)cc1 | inconclusive: 11.2 µM [inhibitor, single point] | –
12 | CN(C)c1ccc(-c2noc([C@@H]3CCCN3Cc3ccc(CO)o3)n2)cn1 | active: 7.94 µM | –
13 | COc1ccc(C(=O)N2CCCN(c3cc(-c4ccc(F)cc4)[nH]n3)CC2)cc1 | inconclusive: 3.98 µM [inhibitor, single point] | –
14 | CCOC(=O)c1noc2nc(C)n(CC(=O)Nc3ccc(OC)c(Cl)c3)c(=O)c12 | inactive | –
15 | CC(=O)N1CCc2c(sc3c2c(=O)n(-c2cccc(Cl)c2)c(=O)n3Cc2ccc(F)cc2Cl)C1 | active: 11.2 µM | –
16 | Cn1c2c(c3ccccc31)CN(C(=O)Nc1ccc(Cl)cc1Cl)CC2 | inconclusive: 2.24 µM [inhibitor, single point] | –
17 | CC1CCCN(C(=O)Cn2ccn3nc(-c4ccccc4)c(CO)c3c2=O)C1 (stereo not given) | inactive | –
18 | O=C(NCc1ccc2c(c1)CCN2C(=O)c1ccc(Cl)cc1)c1ccco1 | inactive | –
19 | O=C(c1ccncc1)N1CCC(C2CCN(Cc3ccccn3)C2)CC1 (stereo not given) | inactive | –
20 | O=C(Nc1cccc(C(F)(F)F)c1)c1cnc2c(c1)N(C(=O)Cc1cccc(C(F)(F)F)c1)CCC2 | inconclusive: 2.51 µM [inhibitor, partial curve, poor fit] | –
21 | CCN(CC)c1ccc(NS(=O)(=O)c2ccc(-c3coc(C)n3)cc2)c(C)c1 | inconclusive: 12.6 µM [inhibitor, single point] | –
22 | CCN(CC)c1cc(C)c2cc(NC(=O)/C=C/c3ccccc3OC(C)C)ccc2n1 | inconclusive: 17.8 µM [inhibitor, single point] | –
23 | O=C(NCCc1ccccc1)N1CCC2(CC1)CC(N1CCOCC1)CCO2 (stereo not given) | inactive | –
24 | O=C1NCc2ccccc2CC12CCN(Cc1ccc(F)c(Cl)c1)CC2 | inconclusive: 12.6 µM [inhibitor, single point] | –

Row | Structure (SMILES) | Potency | activity, negative = inhibition
25 | CCN1C(=O)C2(CCN(S(=O)(=O)Cc3ccccc3Cl)CC2)c2ccccc21 | inconclusive: 3.98 µM [inhibitor, full curve] | –
26 | CSc1ccc(-c2nc(CN(C)Cc3cnccn3)c(C)o2)cc1 | inconclusive: 8.91 µM [inhibitor, partial curve, poor fit] | –
27 | CCCC(=O)N1CCCN(C)c2ccccc21 | inactive | –
28 | CCc1c(C)nc2nncn2c1NCc1ccc(OC)cc1 | inconclusive: 17.8 µM [inhibitor, single point] | –
29 | CCc1cccc(OC2CN(C(=O)C3CCCN(CC(N)=O)C3)C2)c1 (stereo not given) | inconclusive: 0.126 µM [inhibitor, full curve] | –
30 | CN1c2cc(C(=O)NC3CCCCCC3)ccc2C(=O)N2CCCCC21 (stereo not given) | inactive | –
31 | CCCCN(CC)CCNC(=O)C1CCN(c2nnc(C)c3c(C)n(-c4ccc(C)cc4)nc23)CC1 | inconclusive: 3.98 µM [inhibitor, single point] | –
32 | Cc1ccc(OCC(=O)c2ccc3c(c2)N(C(C)C(=O)NCC2CCCO2)C(=O)CO3)cc1C (stereo not given) | inactive | –
33 | Cc1cccc(OCC(=O)NCc2nnc3c(-c4nc(C)no4)cccn23)c1 | inactive | –
34 | O=C(CCn1cnnn1)N1CCC2(CC1)Nc1ccccc1NC2=O | inactive | –
35 | CCN1C(=O)C2CC3(CCN(Cc4cn(C)c5ccc(OC)cc45)CC3)CN2C1=O (stereo not given) | inactive | –
36 | O=C1c2c(nc(CNCc3ccccc3)n2Cc2ccccc2)NCCN1CC1CC1 | inconclusive: 2.51 µM [inhibitor, partial curve, poor fit] | –
37 | Cc1noc(C)c1S(=O)(=O)N1CCC[C@H]1C(=O)N1CCCCCCNC(=O)CC1 | inactive | –
38 | COc1cccc(CN2C(=O)CCCCC2C(=O)NC2CCCCCC2)c1 (stereo not given) | active: 8.91 µM | –
39 | CCOCCCNC(=O)N1CCC2(CC1)CC(N(Cc1ccc(F)cc1)C1CC1)CCO2 (stereo not given) | inconclusive: 14.1 µM [inhibitor, single point] | –
40 | Cc1cc(C)cc(NC(=O)Nc2cccs2)c1 | inconclusive: 17.8 µM [inhibitor, single point] | –
41 | O=C(CC1CCCN(c2cnn(CC3CC3)c(=O)c2)C1)NCc1ccccc1Cl (stereo not given) | inconclusive: 10 µM [inhibitor, single point] | –
42 | Cc1c(-c2ccc(F)cc2)[nH]c2ccc(CNC(=O)c3ccc(CO)o3)cc12 | inconclusive: 12.6 µM [inhibitor, partial curve, poor fit] | –
43 | Cc1ccc(NC(=O)C2CCCN(S(=O)(=O)c3ccc(F)cc3)C2)cc1 (stereo not given) | inactive | –
44 | COc1ccc(-c2ccnc(-c3nnc(C)n3C(C)C)c2)cc1OC | inactive | –
45 | O=C(Cc1ccccc1)N1CC[C@H]2COC(=O)N2c2cc(F)ccc2C1 | inactive | –
46 | COCCCn1c(CN(C)CCc2ccccc2)cnc1S(=O)(=O)C1CCCC1 | inactive | –
47 | O=C(COc1ccc(F)cc1)NC1CCN(c2cc(C(F)(F)F)ncn2)CC1 | active: 5.62 µM | –
48 | CCc1ccc(-n2c(N3CCN(c4cccc(C)c4C)CC3)nc3ccccc3c2=O)cc1 | active: 11.2 µM | –

Row | Structure (SMILES) | Potency | activity, negative = inhibition
49 | CC(C)N1CCC(N2CCCC(N3CCN(c4cccc(C(F)(F)F)c4)CC3)C2)CC1 (stereo not given) | active: 14.1 µM | –
50 | COc1ccccc1N1CCN(C(=O)C2CCCN(S(=O)(=O)c3ccc4c(c3)oc(=O)n4C)C2)CC1 (stereo not given) | inconclusive: 0.1 µM [inhibitor, full curve, poor fit] | –
51 | O=C(N1CCCCC1)N1CCN(c2cc(Cl)ncn2)C(=O)C1 | – | inconclusive: -179% [inhibitor]
52 | CN[C@H](C(=O)N[C@H]1C[C@@](O)(C(=O)N[C@H](CC(C)C)C(N)=O)C[C@@H](O)[C@@H]1O)C(C)C | inactive | –
53 | CCNC(=O)[C@@H]1C[C@H](NC(=O)CO)CN1CC(=O)NCc1cccs1 | inactive | –
54 | CCOc1cccc(CNC(=O)[C@H]2CCC[C@H]2NC(=O)c2ccc(OC)cc2)c1 | inconclusive: 10 µM [inhibitor, single point] | –
55 | CC(C)(C)CN1CC2ON=C(C(=O)O)C2C1 (stereo not given) | inactive | –
56 | CN1CC(C(=O)N2CCCC(c3ccccc3)(c3ccccc3)C2)CC1=O (stereo not given) | inactive | –
57 | CN(C(=O)CSc1nc2ccc(NC(=O)COc3ccccc3Cl)cc2s1)c1ccccc1 | inconclusive: 10 µM [inhibitor, single point] | –
58 | Cc1ccc(Nc2c(-c3ccccc3O)nc3cc(C)ccn23)cc1 | active: 5.62 µM | –
59 | C=CCNC(=O)C(NC(=O)c1cccc(OC)c1)C1CCN(C(=O)C2CCCC2)CC1 (stereo not given) | inactive | –
60 | COCCNC(=O)[C@H]1C[C@H](Oc2ccccc2)CN1C(=O)Nc1ccccc1 | inactive | –
61 | COc1ccc(C(=O)N2C[C@@H]3OCC(=O)N(Cc4ccc(OC(F)(F)F)cc4)[C@@H]3C2)cc1 | inconclusive: 14.1 µM [inhibitor, single point] | –
62 | Cn1cc(S(=O)(=O)c2ccc(Cl)cc2)c(=O)c2cc(F)c(N3CCOCC3)cc21 | inconclusive: 14.1 µM [inhibitor, single point] | –
63 | COc1ccc(-c2cc3nc(C)c(CCC(=O)N4CCN(c5cc(C)ccc5C)CC4)c(C)n3n2)c(OC)c1 | inconclusive: 5.62 µM [inhibitor, partial curve, poor fit] | –
64 | CC(C)(C)c1ccc(OCC(=O)NC(Cc2c[nH]c3ccccc23)C(=O)O)cc1 (stereo not given) | inactive | –
65 | CCC(=O)N1CCOc2ccc(CN3CCc4ccccc4C3)cc2C1 | inconclusive: 17.8 µM [inhibitor, single point] | –
66 | COC(=O)[C@@H]1C[C@@H](NS(=O)(=O)c2ccc(C(F)(F)F)cc2)CN1C | inactive | –
67 | CNC(=O)c1c(NC(=O)c2ccc(S(=O)(=O)N3CCCC(C)C3)cc2)sc2c1CCC2 (stereo not given) | inconclusive: 12.6 µM [inhibitor, single point] | –
68 | CCCNC(=O)N1CCCC(c2nc(-c3cccnc3)no2)CCNC(=O)CC1 (stereo not given) | inactive | –
69 | COc1ccc(CNC(=O)COc2ccc(-c3nnc4n3CCCC4)cc2)cc1 | inconclusive: 11.2 µM [inhibitor, partial curve, poor fit] | –
70 | CC(=O)Nc1ccc(S(=O)(=O)NC[C@H]2C[C@@H]3CCN2C[C@@H]3c2cc(-c3ccc(N(C)C)cc3)nc(C)n2)cc1 | inconclusive: 15.8 µM [inhibitor, partial curve, poor fit] | –
